The values that follow come from ChEMBL document CHEMBL4888484, “Replenishing the malaria drug discovery pipeline: Screening and hit evaluation of the MMV Hit Generation Library 1 (HGL1) against asexual blood stage Plasmodium falciparum ,using a nano luciferase reporter read-out” (2022).

One may read the % Inhibition as the drop in the measured response relative to a control, in per cent.

The whole screen tested about 150,000 compounds, of which about 540 (0.36%) showed an effect of 50% or more. Some of the results follow.

For this assay, the system named is Plasmodium falciparum. The assay is described as follows: Primary screen in NF54 nanoGlo assay, in single point, at 2uM, 72h; a lower Z score goes with more inhibition. Format: functional, Erythrocyte. Conditions: timepoint 72 hour.
With `CC1CN(CCc2ccncc2)CCN1CC(O)c1ccccc1` (centres undefined), the “% Inhibition” value is -13% and the Z score came out at 1.08.

As to `CC(C)c1n[nH]c2c1CN(C(=O)c1c[nH]nc1-n1cnnn1)CC2`, the “% Inhibition” value is on record as -6% and the Z score is 1.23.

As for `O=C1C[C@H](NC(=O)C(c2ccccc2)c2ccccc2)CN1`, the “% Inhibition” value is on record as -8% and the Z score came to 1.43.

For `Cc1nnc(C(=O)NCCC2=CCCC2)s1`, the “% Inhibition” value was -12% and the Z score is given as 1.56.

Take `N#CC1(c2ccccc2)c2ccccc2C(=O)c2ccccc21`: the “% Inhibition” value is 34% and the Z score is -4.35.

As to `Cc1nc(C)c(-c2ccc(C(=O)N[C@H]3CCCNC3=O)cc2)[nH]1`, the “% Inhibition” value was 12% and the Z score was -1.52.

As to `Cc1nccc(NC(=O)N(Cc2ccoc2)C2CC2)n1`, the “% Inhibition” value is -3% and the Z score is 0.6.

On to `Cc1ccc([C@@H]2Cn3nc(C(=O)Nc4ccc(C(N)=O)cc4)cc3CO2)cc1`, for which the “% Inhibition” value is listed as -7% and the Z score is listed as 0.88.

`CCN1C[C@@H](NC(=O)N(Cc2ccsc2)C2CCCCC2)CC1=O`: the “% Inhibition” value is -16% and the Z score was determined as 1.59.

For `O=C(Nc1ccncc1)N(Cc1ccccc1)C1CCCCC1`, the “% Inhibition” value is recorded as 3% and the Z score is given as -0.36.

`COc1ccc(CCNC(=O)c2cnn3c4c(cnc23)C[C@@H](C)CC4)cc1OC`: the “% Inhibition” value was determined as 61% and the Z score was -4.54.

`Cn1ccnc1C(=O)c1cccc(NC(=O)CCn2cnnn2)c1`: the “% Inhibition” value is recorded as -10% and the Z score came out at 1.57.

For the compound `O=C(C1CC=CCC1)N1CCCC1c1cccc(F)c1` (centres undefined), the “% Inhibition” value is listed as -15% and the Z score worked out at 1.48.

`O=C(NCCc1nnc2ccccn12)NCC1CCCC1`: the “% Inhibition” value is -16% and the Z score is 3.08.

`COc1ccc(-c2noc3nc(C4CC4)cc(C(=O)Nc4cc(C)n(Cc5ccccc5F)n4)c23)cc1`: the “% Inhibition” value amounted to 26% and the Z score is -2.95.

As for `COc1ccc([C@H](C)NC(=O)N2CC3(C2)CS(=O)(=O)C3)cc1`, the “% Inhibition” value is reported as -13% and the Z score is 2.78.

As for `CCC1CCC(CNC(=O)[C@H](C)NC(N)=O)CC1` (some centres undefined), the “% Inhibition” value is reported as -8% and the Z score came to 1.44.

In the case of `CS(=O)(=O)CCc1ccc(N[C@H]2CCc3ccccc3C2)cc1`, the “% Inhibition” value is given as -9% and the Z score stood at 1.37.

Turning to `O=C(Cc1ccc(F)cc1)Nc1c(C(=O)N2CCC(N3CCCCC3)CC2)oc2ccccc12`, the “% Inhibition” value was -1% and the Z score is reported as 0.23.

On to `CNC(=O)[C@H]1CN(C(=O)Nc2ccc(C)cc2Cl)CC12CCCC2`, for which the “% Inhibition” value is reported as 4% and the Z score is -0.53.

As to `COc1ccccc1CN(C1CC1)S(=O)(=O)CC1(C#N)CCCC1`, the “% Inhibition” value amounted to 4% and the Z score is given as -0.45.

On to `CCCc1n[nH]cc1C(=O)N1CCC2(CC1)CC(=O)N(Cc1ccccc1)C2`, for which the “% Inhibition” value amounted to 0% and the Z score amounted to 0.03.

On to `CCn1cc(CN(C)C(=O)c2cc(C(C)C)cc(C(C)C)c2O)cn1`, for which the “% Inhibition” value is on record as -14% and the Z score is 1.92.

Consider `Cc1ccc(S(N)(=O)=O)c(C(=O)NC[C@H](C)N2CCCCC2=O)c1`, for which the “% Inhibition” value worked out at 30% and the Z score is listed as -3.82.

Turning to `CC[C@H](NC(=O)CN1CCCCCC1)c1ccc(C)cn1`, the “% Inhibition” value is -6% and the Z score is 1.12.

Take `Cn1ccc2cc(C(=O)Nc3ccc4c(c3)C(=O)N3CCC[C@H]3C(O)=N4)ccc21`: the “% Inhibition” value is 9% and the Z score is recorded as -1.14.

As to `CCNc1cc(N2CCN(C(=O)CCCc3ccccc3)CC2)nc(C)n1`, the “% Inhibition” value is -13% and the Z score is listed as 2.25.

Turning to `Nc1nc(N2CCCOCC2)c2cc(C(=O)O)ccc2n1`, the “% Inhibition” value is -10% and the Z score is 1.15.

As to `Cc1ccnn1CC(=O)N(C)Cc1csc(-c2cccs2)n1`, the “% Inhibition” value is reported as -1% and the Z score stood at 0.19.

For `c1nc(CCNC[C@@H]2CCCN3CCCC[C@H]23)c[nH]1`, the “% Inhibition” value is -15% and the Z score amounted to 2.93.

In the case of `O=C(OC[C@H]1CCCCN1)N1CCCCCC1`, the “% Inhibition” value is given as -5% and the Z score came to 0.55.

Consider `CCN(CC)C(=O)c1nc(CNC(=O)C(C)(C)C)oc1C`, for which the “% Inhibition” value was -12% and the Z score was 1.55.

As for `CCC[C@]1(COC)CCCN1Cc1nc(-c2ccoc2)no1`, the “% Inhibition” value was 7% and the Z score is recorded as -0.85.

Consider `CN(C[C@@H]1OCCc2ccccc21)C(=O)Cc1cscn1`, for which the “% Inhibition” value was -12% and the Z score was determined as 1.5.

For `Cn1cc(C(=O)N2CC(=O)Nc3ccccc3[C@@H]2c2ccccc2)ccc1=O`, the “% Inhibition” value was -12% and the Z score was determined as 1.62.

Consider `CN(C[C@H]1CCOC1)c1ncc(S(=O)(=O)NCCCF)cc1C(F)(F)F`, for which the “% Inhibition” value is -6% and the Z score is on record as 1.29.

On to `Cc1ccc(-n2c(CN3CCN(C(=O)NCc4ccc(F)cc4)CC3)nc3cccnc32)cc1`, for which the “% Inhibition” value is -3% and the Z score is recorded as 0.42.

With `O=C(CNS(=O)(=O)c1ccc(Cl)c(C(F)(F)F)c1)NCC1(N2CCOCC2)CCCCC1`, the “% Inhibition” value stood at 1% and the Z score is -0.1.

Turning to `CCc1ccc(S(=O)(=O)N2CCC3(CC2)NCCN=C3NCc2cccc(OC)c2)cc1`, the “% Inhibition” value came out at 5% and the Z score is on record as -0.83.

Consider `CC(=O)Nc1ncncc1N1CCC(C(=O)NCc2ccccc2C(F)(F)F)CC1`, for which the “% Inhibition” value is -4% and the Z score was 0.77.

With `Cc1n[nH]c(-c2ccc(S(=O)(=O)N3CCN(Cc4ccccc4)CC3)s2)c1C`, the “% Inhibition” value was -2% and the Z score worked out at 0.45.

For the compound `O=S1(=O)CCCN1C1CCN(c2nc(C(F)(F)F)cs2)CC1`, the “% Inhibition” value is recorded as 0% and the Z score was found to be 0.08.
